# Assay results reported in PMC6919601, “Identification of Plasmodium dipeptidyl aminopeptidase allosteric inhibitors by high throughput screening” (PLoS ONE, 2019).
# Out of some 110,000 compounds screened, about 230 (0.21%) showed an effect of 50% or more. The list shows a part of the results.
# Biological target: DPAP1 (Plasmodium falciparum, UniProt Q8IIJ9)
# Test: primary screen, percent inhibition; read by cleavage of a fluorogenic dipeptide substrate; higher = more effect of the substance
# Parameters: species or system P. falciparum D10 trophozoite lysates; single well
# 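Also: 30 min substrate incubation versus DMSO and 10 µM JCP410 controls.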
# Sequence of DPAP1 (Q8IIJ9 whole entry, looked up): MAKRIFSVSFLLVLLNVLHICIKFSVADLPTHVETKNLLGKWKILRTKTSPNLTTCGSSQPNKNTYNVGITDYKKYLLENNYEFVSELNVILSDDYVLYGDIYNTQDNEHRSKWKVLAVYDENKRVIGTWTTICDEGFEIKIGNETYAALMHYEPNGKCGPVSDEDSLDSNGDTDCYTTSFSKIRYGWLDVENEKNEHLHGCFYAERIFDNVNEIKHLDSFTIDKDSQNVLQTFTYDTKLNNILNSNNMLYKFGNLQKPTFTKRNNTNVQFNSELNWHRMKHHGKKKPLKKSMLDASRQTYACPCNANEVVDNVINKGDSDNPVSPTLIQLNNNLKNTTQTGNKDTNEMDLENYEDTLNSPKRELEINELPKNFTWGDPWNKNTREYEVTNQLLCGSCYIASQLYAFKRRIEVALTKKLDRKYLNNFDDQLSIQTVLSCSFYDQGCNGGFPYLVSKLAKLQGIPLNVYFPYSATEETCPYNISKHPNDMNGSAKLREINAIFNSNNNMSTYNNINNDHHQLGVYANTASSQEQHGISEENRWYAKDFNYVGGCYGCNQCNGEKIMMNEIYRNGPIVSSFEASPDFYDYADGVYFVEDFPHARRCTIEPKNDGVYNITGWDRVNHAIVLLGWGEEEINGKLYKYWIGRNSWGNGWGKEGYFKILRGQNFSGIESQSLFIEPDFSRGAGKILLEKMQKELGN
row,SMILES,% Inhibition @ 10 uM
1,COc1ccc(-c2cc(CCCC(=O)NCc3ccco3)no2)cc1,2.12%
2,COC(=O)c1[nH]cnc1C(=O)NC1CC(C)(C)NC(C)(C)C1,-3.75%
3,CC1=C(c2ccc(C)cc2)S(=O)(=O)N=C1NCCCN(Cc1ccccc1)C(C)C,-4.68%
4,CC(CNC(=O)c1nnc(Cc2ccc(Cl)cc2)o1)c1ccccc1 (stereo not drawn),-2.19%
5,CCOc1ccccc1NC(=O)Nc1ccc(Cl)cc1,-1.36%
6,CCC(C)NC(=O)C1CCN(S(=O)(=O)c2c(C)noc2/C=C\c2ccc(OC)cc2)CC1 (stereo not drawn),-1.28%
7,CCc1ccc(C2C3=C(O)CCCC3=NC(C)=C2C(=O)OC)s1 (stereo not drawn),4.52%
8,COC(=O)C1=C(O)/C(=C\c2cc3c(cc2Br)OCO3)N=C1C,-5.26%
9,Cc1cccc2c1-c1sc(C(=O)Nc3cccnc3)cc1CO2,-4.85%
10,Cc1cc(-c2ccc(S(=O)(=O)NCc3ccccn3)s2)on1,3.9%
11,COc1ccc(Nc2oc(COc3ccc(OC)cc3)nc2C#N)cc1,0.446%
12,Cc1c(C(=O)NC2CCCCC2)c(C)n2cnn(CC(=O)NCCCN3CC(C)CC(C)C3)c(=O)c12 (stereo not drawn),1.72%
13,COc1c(O)cnn(Cc2ccccc2)c1=O,-6.12%
14,Cc1cccc(OCC(=O)NC2CCCCCC2)c1C,0.83%
15,O=[N+]([O-])c1ccc(CN2CCC(Cc3ccccc3)CC2)cc1,-0.34%
16,CCOc1ccc(CCNC(=O)c2oc3c(c2C)-c2n[nH]cc2CC3)cc1OCC,-4.68%
17,CCOc1c(/C=C(\C#N)C(N)=O)c2ccccc2n1-c1c(Cl)cccc1Cl,1.9%
18,O=C(CSc1ncnc2sc3c(c12)CCCC3)Nc1ccc2c(c1)OCCO2,0.528%
19,Cc1nc2scc(C)n2c(=O)c1S(=O)(=O)N1CCC(Cc2ccccc2)CC1,-5.67%
20,O=C(NCCC12CC3CC(CC(C3)C1)C2)c1csc2ccccc12,-5.27%
21,Oc1ccc2ccccc2c1CN1CC=C(c2ccc(F)cc2)CC1,-7.18%
22,c1cc(CN2CCSCC2)ccn1,-7.34%

row,SMILES,% Inhibition @ 10 uM
1,CC12CN3CN(C1)CC(C)(C3)C2NC(=S)Nc1ccccc1 (stereo not drawn),1.4%
2,CCOc1ccc(-c2nc(SCC(=O)NCCCOC)c(-c3ccc(F)cc3)[nH]2)cc1,-1.58%
3,O=C(NCC1CCCO1)c1cc2n(n1)C(C(F)(F)F)CC(c1ccc(F)cc1)N2 (stereo not drawn),2.38%
4,N#C/C(C(N)=O)=C1/CCCN1Cc1ccccc1,1.9%
5,CCOc1ccccc1NC(=O)COc1ccc(C)c(C)c1,-6.64%
6,O=C(c1ccc(CSc2nc3ccncc3n2Cc2ccc(F)cc2)cc1)N1CCOCC1,-2.37%
7,Cc1cc(=O)n2nc(N(C)CC(=O)NCCCc3ccccc3)sc2n1,-2%
8,COc1ccc(OC)c(CCNC(=O)CCCn2nc(C)c3sc4ccccc4c3c2=O)c1,-6.64%
9,Cc1ccccc1C(=O)Nc1c2c(nc3ccccc13)CCCC2,-1.43%
10,NC(=O)CSc1nc2ccccc2n1C1CCCCC1,1.16%
11,Cc1ccc(N2C(=O)CSC2c2ccc(Cl)cc2)cc1 (stereo not drawn),1.43%
12,Cc1ccc2nc3c(cc(C#N)c(=N)n3CCN3CCOCC3)c(=O)n2c1,1.76%
13,Cc1c(OCC(=O)O)ccc2c(-c3ccccc3)cc(=O)oc12,9.21%
14,CC(CN1CCCCC1)C(=O)c1ccccc1 (stereo not drawn),-8.61%
15,CCC(C(=O)O)n1sc2ccccc2c1=O (stereo not drawn),-1.75%
16,O=C(Nc1ccc(-c2cc3ccccc3oc2=O)cc1)c1ccccc1F,2.94%
17,COc1ccc(NC(=O)CN2CCN(CC#N)CC2)cc1,0.231%
18,Cc1cccc(NC(=O)c2cnoc2C)c1C,-1.61%
19,O=C(CCC(=O)N1Cc2ccccc2Oc2ncccc21)N1CCN(c2ccccn2)CC1,5.82%
20,CCOC(=O)c1cnc(SCc2ccccc2F)nc1N,-6.36%
21,CSc1cccc(NC(=O)CNS(=O)(=O)c2ccccc2)c1,-4.4%
22,Cc1ccccc1OCc1nc(-c2ccc(-n3cccc3)cc2)no1,-7.38%

row,SMILES,% Inhibition @ 10 uM
1,CCOc1ccc2nc(N3CCCC(C(=O)N4CC(C)CC(C)C4)C3)sc2c1 (stereo not drawn),1.8%
2,Cc1nn(C(C)C(=O)O)c2ccccc12 (stereo not drawn),0.0198%
3,COc1ccccc1/C=C/c1nc(C#N)c(NCc2ccc(F)cc2)o1,-6.29%
4,COc1ccc(OC)c(/C=C2\N=C(c3cc(Cl)ccc3Cl)OC2=O)c1,-2.6%
5,Cc1ccccc1S(=O)Cc1ccc(C(=O)N2CCN(C(=O)c3ccco3)CC2)o1 (stereo not drawn),2.83%
6,COc1ccc(CNC(C)C2COc3ccccc3O2)c(OC)c1 (stereo not drawn),-3.23%
7,CC(C)c1ccc(/C=C/C(=O)O)cc1,-1.86%
8,FC(F)(F)c1cc(N2CCOCC2)nc(-c2ccccc2)n1,1.91%
9,O=C1c2cccnc2C(=O)N1Cc1ccc(F)cc1S(=O)(=O)N1CCN(C2CCCCC2)CC1,7.41%
10,Cc1ccc(C(=O)N/C(=C/c2ccc(Cl)cc2)C(=O)N2CCOCC2)cc1,-1.52%
11,O=C1NC2(CCCCCC2)Cc2ccccc21,2.65%
12,CCn1c(C)nc2cc(S(=O)(=O)N3CCOCC3)ccc21,-6.69%
13,COc1ccc(Cn2c(=O)oc3ccc(C)cc32)cc1OC,0.983%
14,c1cncc(CNC23CC4CC(CC(C4)C2)C3)c1,4%
15,CN(C)c1nc(NC(C)(C)C)nc(NC(C)(C)C)n1,-5.7%
16,CC1CCN(C(=O)CCc2nnc3n(CCc4ccccc4)c(=O)c4ccccc4n23)CC1,0.981%
17,Cc1ccccc1Cc1nc2ccccc2nc1O,-1.16%
18,Cc1cc(S(=O)(=O)N2CCC(n3c(O)nc4ccccc43)CC2)ccc1-n1cnnn1,-0.671%
19,C#CCN1C(=O)c2ccccc2S1(=O)=O,1.72%
20,COc1cccc(NC(=O)c2cccc(Cl)c2)c1,3.53%
21,CCc1nn(CC(=O)N2C(C)CCCC2C)c(=O)c2cc3occc3n12 (stereo not drawn),-2%
22,O=S(=O)(Nc1cccnc1)c1ccc2[nH]c3c(c2c1)CCCCC3,3.2%
